Data reported in PubChem BioAssay AID1347120 (National Center for Advancing Translational Sciences (NCATS), 2019).
Hit rate of the full screen: of about 390,000 compounds, about 930 (0.24%) were called active. This list was built around the results that the source calls inconclusive (neither active nor inactive); the mix of calls is not that of the screen. Calls follow the shape of the dose curve; as a rule, active = well fitted activation curve with a large enough effect; inconclusive = small, poorly fitted or top-dose-only effect; inactive = no such curve, though single readings can be large or run the other way. Potencies of inconclusive entries are doubtful fits and often do not repeat.

Experiment: qHTS for Suppressors of FUS Proteinopathy: Primary screen using FUS-linked yeast assay; also: nearly all actives have a fitted effect of over 55% in size
Details: S. cerevisiae FUS-expressing, OD600, 24 h; Potency: growth rescue; series mostly up to 76.6 µM
Outline: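 Restored growth of FUS-toxic S. cerevisiae, read as 600 nm absorbance after 24 h at 30C in galactose medium (starting OD 0.005). Controls CP55940 and DMSO.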
Potency is read from the fitted curve at half-maximal effect; tags tell the direction and shape of the fitted curve.

Compound	Potency
Cc1ccc(S(=O)(=O)N2C[C@]3(O)C[C@@H]4C(=O)N(c5ccccc5)C(=O)[C@@H]4C[C@]3(OC(=O)NCc3ccco3)C2)cc1	inconclusive: 25.1 µM [activator, single point]
CC(=O)N1CCc2c(sc3c2c(=O)n(-c2ccc(C)cc2)c(=O)n3CC(=O)Nc2ccccc2)C1	inconclusive: 35.5 µM [activator, single point]
Cc1ccc2nc(NC(=O)c3cc(=O)c4cc(Cl)ccc4o3)sc2c1	inactive
COc1cc(OC)c(OC)cc1/C=C1\CC(C)C/C(=C\c2cc(OC)c(OC)cc2OC)C1=O (stereo not drawn)	active: 25.1 µM
S=C1NC[C@H](c2ccccc2)N1CC1CCCCC1	inconclusive: 8.91 µM [activator, partial curve]
O=C(NC1CCCc2c1cnn2-c1ccc(F)cc1F)c1cccs1 (stereo not drawn)	inactive
O=C(CN1CCN(c2ncc(C(F)(F)F)cc2Cl)CC1)NCCNc1ncc(C(F)(F)F)cc1Cl	inconclusive: 3.55 µM [activator, full curve]
COc1ccc(NC(=O)c2nnn(Cc3ccc(Br)cc3F)c2N)c(OC)c1	inactive
C/C(=N\O)c1ccc(Cl)cc1Cl	inactive
CCCCCCCCN1C(=O)[C@@H](CC(=O)NCCCOCCCC)C[C@@]2(C(=O)OC)C1=C[C@H](C(C)C)O[C@@H]2C1CC1	inconclusive: 10 µM [activator, partial curve, poor fit]
O=C(NCc1ccc(Cl)cc1)c1ccc(Cl)cc1[N+](=O)[O-]	inactive
CCN(Cc1ccccc1)S(=O)(=O)c1cc(C(=O)NC(C)C2CC3CCC2C3)ccc1OC (stereo not drawn)	inconclusive: 20 µM [activator, partial curve]
CN(CCc1ccccc1)C(=O)c1ccc(NC(=O)Cc2ccc(NC(=O)C3CCCN(C(=O)C4CCCCC4)C3)cc2)cc1 (stereo not drawn)	inconclusive: 50.1 µM [activator, single point]
CC(NC(=O)Cn1c(-c2cccs2)cc2cc(F)ccc21)c1ccccc1 (stereo not drawn)	inactive
COc1ccc(-n2c(SC(C)C(=O)Nc3ccc(NC(C)=O)cc3)nc3ccccc3c2=O)cc1OC (stereo not drawn)	inconclusive: 35.5 µM [activator, single point]
Cc1nn(-c2ccccc2)c(N2CCCC2)c1/C=N/NC(=S)Nc1cc(C(F)(F)F)ccc1Cl	inactive
O=C(Nc1ccc(N=Nc2ccccc2)c(NC(=O)C2CCCO2)c1)C1CCCO1 (stereo not drawn)	inconclusive: 25.1 µM [activator, partial curve, poor fit]
CCOC(=O)C1=C(C)N=c2s/c(=C\c3ccc(OCC(=O)O)cc3)c(=O)n2C1c1ccc(Cl)cc1 (stereo not drawn)	inconclusive: 22.4 µM [activator, partial curve, poor fit]
CN(C)Cc1ccccc1CNC(=O)c1ccc(Cl)c(S(=O)(=O)NC2CC2)c1	inactive
CCc1ccc(NC(=O)CSc2nc(=O)n(Cc3ccco3)c3c2CCC3)cc1	inconclusive: 28.2 µM [activator, single point]
CCOc1ccc(CNCCCSc2ncccn2)cc1	inactive

Compound	Potency
Cc1ccc(S(=O)(=O)NCc2ccc(C(=O)N3CCN(c4ccc([N+](=O)[O-])cc4)CC3)cc2)cc1	inactive
COc1ccc(NC(=O)CCc2nnc3ccc(N4CCC(C)CC4)nn23)cc1	inconclusive: 3.55 µM [activator, full curve]
CCOc1cc(-c2nc(-c3ccc(-c4ccc(OC)cc4)nc3OC)no2)cc(OCC)c1OCC	inactive
COCCCNC(=O)C1CCN(c2cc(C)nc3c(-c4ccc(OC)c(OC)c4)c(C)nn23)CC1	inactive
COc1cccc(CCNC(=O)CCc2nc(-c3ccccc3F)no2)c1	inactive
COCCN1Cc2cccc(C(=O)Nc3c(C)cc(C)cc3C)c2C1=O	inconclusive: 17.8 µM [activator, single point]
COc1ccc(-n2c(=O)c3ccc(C(=O)NCc4ccc(C)cc4)cc3n(CC(=O)Nc3ccc(C)cc3)c2=O)cc1	inactive
Cc1ccc(-c2ccc(CN3C(C)C(=O)N(Cc4cn(CCC5OCCO5)nn4)CCS3(=O)=O)cc2)cc1 (stereo not drawn)	inconclusive: 39.8 µM [activator, single point]
O=C1c2sc3nc4n(c(=O)c3c2CCC1Br)CCCCC4 (stereo not drawn)	inconclusive: 25.1 µM [activator, partial curve, poor fit]
CCCCCCCCN1C(=O)[C@H](CC(=O)N2CCN(C(=O)C3CC3)CC2)C[C@@]2(C(=O)OC)CC(C)(C)CC=C12	active: 15.8 µM
CCOC1=C2[C@H](c3ccccc3)N(S(=O)(=O)c3ccc(C)cc3)[C@H](C(C)C)[C@H]2n2c(=O)n(-c3ccccc3)c(=O)n2C1	inconclusive: 12.6 µM [activator, partial curve, poor fit]
CC(C)(C)C(=O)Nc1ccc(C(=O)N/N=C/C2CC3C=CC2C3)cc1 (stereo not drawn)	inconclusive: 3.55 µM [activator, full curve, poor fit]
CCOC(=O)N1CCN(S(=O)(=O)c2ccc(C(=O)N(CCCN(C)C)c3nc4ccc(OC)cc4s3)cc2)CC1	inconclusive: 7.94 µM [activator, partial curve, poor fit]
Clc1ccc(OCc2nn3c(-c4ccco4)nnc3s2)cc1	inactive
COc1ccc(OC)c(-c2cc(C(=O)N3CCN(c4ccccc4)CC3)no2)c1	inconclusive: 50.1 µM [activator, single point]
CC(=O)N/C(N)=N/c1nc(=O)c2ccccc2s1	inactive
CC(C)Oc1ccc(CNC(=O)CCCn2c(=O)c3cccn3c3cccnc32)cc1	inconclusive: 50.1 µM [activator, single point]
Cc1ccc2cc(C(c3nnnn3C3CCCC3)N3CCN(c4ccccc4)CC3)c(=O)[nH]c2c1 (stereo not drawn)	inconclusive: 39.8 µM [activator, single point]
COc1ccccc1NC(=O)/C(C#N)=C/C=C/c1ccco1	inconclusive: 31.6 µM [activator, single point]
CCOC(=O)C1=C(C)N(C[C@@H]2CC[C@@H](Cc3ccc4cc(OC)ccc4c3)O2)C(=O)NC1c1ccc(OC)cc1 (stereo partly drawn)	inconclusive: 44.7 µM [activator, single point]
Cc1c(Cl)cccc1NC(=O)CN1C(=O)CCn2nc(-c3cccn3C)cc21	inconclusive: 35.5 µM [activator, partial curve]

Compound	Potency
Cc1cc(C)c2c(-n3cccc3)c(C(=O)NCCc3ccccc3)sc2n1	inactive
C#CCOCCOCCOCCNc1nc(N2CCN(C(=O)CCCCCCCCCCNC(=O)[C@H](CO)n3cc(CCCSC)nn3)CC2)nc(N2CCN(C(=O)CCCCCCCCCCNC(=O)[C@H](CCCCN)n3cc(CCO)nn3)CC2)n1	active: 12.6 µM
Nc1ccc(-c2nc3cc([N+](=O)[O-])ccc3o2)cc1	inactive
COc1ccc(CC(=O)Nc2cccc(-c3nnc(-c4ccccc4)o3)c2)cc1OC	inconclusive: 28.2 µM [activator, partial curve, poor fit]
O=C(COc1ccccc1)N(Cc1cc2ccccc2[nH]c1=O)CC1CCCO1 (stereo not drawn)	inconclusive: 44.7 µM [activator, single point]
O=C(Nc1nc(-c2ccco2)c(-c2ccco2)s1)c1c(F)cccc1Cl	inconclusive: 20 µM [activator, single point]
Cn1c(=O)n(CCc2ccccc2)c(=O)c2c1nc1n2CCN1c1ccc(Cl)cc1	inactive
CC(C)(C)OC(=O)C[C@@H]1C/C=C\C[C@H](CC(=O)N[C@@H](CO)Cc2ccccc2)C(=O)N[C@H](Cc2ccccc2)COC1=O	inconclusive: 15.8 µM [activator, partial curve]
COc1ccccc1NC(=O)CN1C(=O)COc2ccc(C)cc21	inactive
CCCCNC(=O)NC1CCN(CC(=O)Nc2ccc3c(c2)OCCO3)CC1	inactive
O=C1c2[nH]nc(-c3ccccc3O)c2C(c2ccc(F)cc2)N1Cc1ccco1 (stereo not drawn)	active: 44.7 µM
CSc1cccc(NC(=O)Cn2nnc(C(=O)NCCc3ccccc3)c2N)c1	inactive
CCN1C(=O)[C@H]2[C@@H](c3ccc(-c4ccccc4)cc3)N3CCC[C@@]3(C(=O)OC)[C@H]2C1=O	inconclusive: 14.1 µM [activator, partial curve]
COc1cccc(Cn2cc(S(=O)(=O)c3ccc(C)cc3)c(=O)c3cc4c(cc32)OCO4)c1	inconclusive: 31.6 µM [activator, partial curve, poor fit]
CCCOc1ccc(C(=O)C(CN2CCCC2)c2ccccc2)cc1 (stereo not drawn)	inactive
Cc1nn(Cc2ccccc2)c(C)c1C(=O)OCC(=O)c1cc(C)n(C2CC2)c1C	inconclusive: 28.2 µM [activator, partial curve, poor fit]
COc1ccc2oc(C(=O)N3CCN(S(=O)(=O)c4c(C)c(C)cc(C)c4C)CC3)c(C)c2c1	inactive
COc1ccc2nc(N3CCN(C(=O)c4ccco4)CC3)sc2c1	inactive
O=C(N[C@@H]1C/C=C\C[C@H](CC(=O)N(CCO)Cc2ccccc2)C(=O)NC[C@@H](c2ccccc2)OC1=O)OCC1c2ccccc2-c2ccccc21	inconclusive: 31.6 µM [activator, partial curve, poor fit]
CN(CCc1ccccc1)C(=O)c1cccc(NC(=O)Cc2cccc(NC(=O)C3CCCN(C(=O)C4CCCC4)C3)c2)c1 (stereo not drawn)	inconclusive: 22.4 µM [activator, single point]
Cc1ccc([C@H]2C[C@@H](O)[C@H](n3cc(COC(=O)c4ccccc4)nn3)CN2C(=O)C2CCCCC2)cc1	inconclusive: 22.4 µM [activator, single point]
